The text below walks through data of paper PMC5700166.

Assay in all cases: protein-binding microarray (PBM)
Settings in all cases: PBM: ~300 nM protein, 6 mM HEPES pH 7.8, 80 mM KCl, 0.5 mM EDTA, 0.5 mM EGTA, 6% glycerol, 35 ng/ul poly-dIdC, 1% milk, 1 h, room temperature; Ap Aiptasia and Nv Nematostella (sea anemones) / Co Capsaspora / Aq Amphimedon (sponge) / Dm Drosophila / Hu human; RHD is the Rel homology domain; high values mean tight binding; most listed sequences are background and not binding sites; double strand, one strand shown

The target in one assay is T1, GST-Ap-NF-kB RHD (UniProt A0A913YAJ5).
T1 sequence: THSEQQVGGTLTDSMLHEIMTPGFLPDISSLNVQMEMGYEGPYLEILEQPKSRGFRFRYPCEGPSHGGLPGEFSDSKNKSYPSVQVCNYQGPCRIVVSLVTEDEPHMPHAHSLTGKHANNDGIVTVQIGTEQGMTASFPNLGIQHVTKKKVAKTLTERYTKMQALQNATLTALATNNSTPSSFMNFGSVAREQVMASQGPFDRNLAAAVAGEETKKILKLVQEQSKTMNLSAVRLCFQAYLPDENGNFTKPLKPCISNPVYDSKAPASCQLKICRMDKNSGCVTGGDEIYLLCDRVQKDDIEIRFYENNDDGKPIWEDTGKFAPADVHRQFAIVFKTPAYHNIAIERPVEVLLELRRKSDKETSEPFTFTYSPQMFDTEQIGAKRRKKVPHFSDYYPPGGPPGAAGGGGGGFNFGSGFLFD

Assay [1] has as its target T2, GST-Nv-NF-kB (Cys allele) (UniProt E5G601).
T2 sequence: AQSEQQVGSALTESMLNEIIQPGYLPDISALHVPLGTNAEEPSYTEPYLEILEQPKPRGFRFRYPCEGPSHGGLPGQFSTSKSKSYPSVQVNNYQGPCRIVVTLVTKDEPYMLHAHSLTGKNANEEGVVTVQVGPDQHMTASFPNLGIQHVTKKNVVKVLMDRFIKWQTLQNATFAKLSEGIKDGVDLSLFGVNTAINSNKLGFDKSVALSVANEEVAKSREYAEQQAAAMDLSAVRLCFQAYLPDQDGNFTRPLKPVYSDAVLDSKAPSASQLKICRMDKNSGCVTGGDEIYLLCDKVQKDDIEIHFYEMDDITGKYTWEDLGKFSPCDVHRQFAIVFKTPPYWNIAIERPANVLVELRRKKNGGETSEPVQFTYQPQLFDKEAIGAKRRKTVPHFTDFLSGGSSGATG

The next assay deals with T3, GST-Co-NF-kB (UniProt F1ARL5).
T3 sequence: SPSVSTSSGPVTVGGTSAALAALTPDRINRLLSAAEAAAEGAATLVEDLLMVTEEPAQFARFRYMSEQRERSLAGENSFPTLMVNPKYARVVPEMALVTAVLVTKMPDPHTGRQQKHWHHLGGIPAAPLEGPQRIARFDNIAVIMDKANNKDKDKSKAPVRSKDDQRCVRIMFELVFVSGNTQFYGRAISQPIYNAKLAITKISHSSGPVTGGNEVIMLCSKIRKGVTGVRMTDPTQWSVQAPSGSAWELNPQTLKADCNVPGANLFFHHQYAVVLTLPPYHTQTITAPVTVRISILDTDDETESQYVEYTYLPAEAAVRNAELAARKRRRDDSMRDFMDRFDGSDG

The target of the next assay is T4, GST-Dm-Relish (UniProt Q94527).
T4 sequence: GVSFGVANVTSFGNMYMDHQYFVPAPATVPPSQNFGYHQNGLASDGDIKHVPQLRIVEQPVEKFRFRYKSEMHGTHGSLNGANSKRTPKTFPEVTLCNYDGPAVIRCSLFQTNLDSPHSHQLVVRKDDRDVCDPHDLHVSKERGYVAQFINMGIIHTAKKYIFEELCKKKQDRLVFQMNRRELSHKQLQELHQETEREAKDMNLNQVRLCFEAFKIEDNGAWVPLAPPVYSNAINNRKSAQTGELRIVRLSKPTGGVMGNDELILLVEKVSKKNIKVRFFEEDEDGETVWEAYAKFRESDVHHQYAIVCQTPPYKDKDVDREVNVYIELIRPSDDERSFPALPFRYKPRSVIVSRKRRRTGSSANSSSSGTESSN

For a further assay, the target named is T5, GST-Aq-NF-kB (UniProt A9Y5G7).
T5 sequence: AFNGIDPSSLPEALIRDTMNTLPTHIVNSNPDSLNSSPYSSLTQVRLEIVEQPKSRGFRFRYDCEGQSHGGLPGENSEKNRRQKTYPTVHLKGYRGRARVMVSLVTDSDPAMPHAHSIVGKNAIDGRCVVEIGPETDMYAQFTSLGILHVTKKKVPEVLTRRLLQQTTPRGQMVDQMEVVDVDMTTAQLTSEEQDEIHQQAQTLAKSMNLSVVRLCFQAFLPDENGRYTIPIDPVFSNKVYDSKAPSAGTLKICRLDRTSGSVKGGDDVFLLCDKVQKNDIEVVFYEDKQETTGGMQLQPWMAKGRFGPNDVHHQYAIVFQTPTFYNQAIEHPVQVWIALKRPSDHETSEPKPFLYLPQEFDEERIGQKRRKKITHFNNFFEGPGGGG

Only a part is listed here, and it is no random draw. The list includes weakly bound sequences.

On to “CCGATTAACATCAGTGCACGCCCTGATGTTAATCGGGTCTTGATTCGCTTGACGCTGCTG”, for which the binding signal in the assay with GST-Ap-NF-kB RHD was -0.0506 z-score; in assay [1], -1.95 z-score; in the assay with GST-Co-NF-kB, -1.75 z-score; with GST-Dm-Relish, -0.885 z-score; with GST-Aq-NF-kB, -0.248 z-score.

Regarding “CCGATTAACATCACAGAGTTTCCTGATGTTAATCGGGTCTTGATTCGCTTGACGCTGCTG”, the binding signal with GST-Ap-NF-kB RHD is -0.451 z-score; in assay [1] it was -0.798 z-score; with GST-Co-NF-kB it was -0.121 z-score; with GST-Dm-Relish it was 0.0744 z-score; in the assay with GST-Aq-NF-kB, 0.0672 z-score.

For “CCGATTAACATCAGCAATGTAGGTGATGTTAATCGGGTCTTGATTCGCTTGACGCTGCTG”, the binding signal in the assay with GST-Ap-NF-kB RHD is 0.268 z-score; in assay [1], -0.00787 z-score; with GST-Co-NF-kB, -0.118 z-score; with GST-Dm-Relish it was 0.25 z-score; with GST-Aq-NF-kB, 0.341 z-score.

Take “CCGATTAACATCAGGTATTGTGCTGATGTTAATCGGGTCTTGATTCGCTTGACGCTGCTG”: the binding signal with GST-Ap-NF-kB RHD was 0.117 z-score; in assay [1], 0.393 z-score; in the assay with GST-Co-NF-kB, -0.0161 z-score; with GST-Dm-Relish it was -0.0573 z-score; with GST-Aq-NF-kB it was -0.0694 z-score.

As to “CCGATTAACATCAGTCTATGTGCTGATGTTAATCGGGTCTTGATTCGCTTGACGCTGCTG”, the binding signal with GST-Ap-NF-kB RHD is -0.477 z-score; in assay [1], -0.868 z-score; with GST-Co-NF-kB, -0.971 z-score; in the assay with GST-Dm-Relish, -0.641 z-score; with GST-Aq-NF-kB it was -0.399 z-score.

For the sequence “CCGATTAACATCAGACATCTGATTGATGTTAATCGGGTCTTGATTCGCTTGACGCTGCTG”, the binding signal with GST-Ap-NF-kB RHD is -0.229 z-score; in assay [1], -0.959 z-score; in the assay with GST-Co-NF-kB, -0.848 z-score; in the assay with GST-Dm-Relish, -0.856 z-score; with GST-Aq-NF-kB, -0.575 z-score.

Take “CCGATTAACATCAAACTAAAACATGATGTTAATCGGGTCTTGATTCGCTTGACGCTGCTG”: the binding signal with GST-Ap-NF-kB RHD was -0.295 z-score; in assay [1], 0.151 z-score; with GST-Co-NF-kB, 0.0936 z-score; with GST-Dm-Relish it was -0.42 z-score; in the assay with GST-Aq-NF-kB it was -0.498 z-score.

In the case of “CCGATTAACATCAGTTCACGCCGTGATGTTAATCGGGTCTTGATTCGCTTGACGCTGCTG”, the binding signal with GST-Ap-NF-kB RHD was -0.0827 z-score; in assay [1] it was -0.288 z-score; with GST-Co-NF-kB it was 0.228 z-score; in the assay with GST-Dm-Relish, -0.301 z-score; with GST-Aq-NF-kB, -0.386 z-score.

“CCGATTAACATCAGGAACTCTCCTGATGTTAATCGGGTCTTGATTCGCTTGACGCTGCTG”: the binding signal was -0.722 z-score with GST-Ap-NF-kB RHD; -0.587 z-score in assay [1]; -0.616 z-score in the assay with GST-Co-NF-kB; -0.807 z-score with GST-Dm-Relish; -0.0132 z-score with GST-Aq-NF-kB.

As to “CCGATTAACATCAACCACAGATGTGATGTTAATCGGGTCTTGATTCGCTTGACGCTGCTG”, the binding signal in the assay with GST-Ap-NF-kB RHD was -0.335 z-score; in assay [1] it was -0.299 z-score; in the assay with GST-Co-NF-kB, -0.0378 z-score; with GST-Dm-Relish it was 0.558 z-score; in the assay with GST-Aq-NF-kB it was -0.239 z-score.

With “CCGATTAACATCACATGATCCTATGATGTTAATCGGGTCTTGATTCGCTTGACGCTGCTG”, the binding signal with GST-Ap-NF-kB RHD is -0.173 z-score; in assay [1], -0.265 z-score; with GST-Co-NF-kB it was -0.433 z-score; with GST-Dm-Relish, -0.295 z-score; in the assay with GST-Aq-NF-kB, -0.436 z-score.

Take “CCGATTAACATCATTATCTCATATGATGTTAATCGGGTCTTGATTCGCTTGACGCTGCTG”: the binding signal is -0.316 z-score with GST-Ap-NF-kB RHD; -0.318 z-score in assay [1]; -0.25 z-score with GST-Co-NF-kB; -0.238 z-score with GST-Dm-Relish; -0.391 z-score with GST-Aq-NF-kB.
